Laboratory results from patent publication US10299477B2 (priority 2015, dated 2019).

These compounds were tested on Phytophthora infestans. Details: 250 ppm, sprayed 2.5 ml/pot before inoculation; evaluated 5-10 days after inoculation.
Type: in vivo

| SMILES | Test F (control value class, late blight on tomato) |
| --- | --- |
| COc1cc(F)c(-c2c(-c3ccc(F)cc3Cl)cc(Cl)c(=O)n2C)c(F)c1 [Compound 600] | L (L shows 50% or less of control values) |
| CCn1c(-c2c(F)cc(Cl)cc2F)c(-c2cc(F)ccc2Cl)ccc1=O [Compound 601] | L (L shows 50% or less of control values) |
| CCn1c(-c2c(F)cc(Cl)cc2F)c(-c2cc(F)ccc2Cl)cc(Cl)c1=O [Compound 602] | L (L shows 50% or less of control values) |
| CCn1c(-c2c(F)cc(Cl)cc2F)c(-c2cc(F)ccc2Cl)cc(Br)c1=O [Compound 603] | L (L shows 50% or less of control values) |
| Cn1c(-c2c(F)cc(Cl)cc2F)c(-c2cc(F)ccc2Cl)ccc1=O [Compound 604] | L (L shows 50% or less of control values) |
| Cn1c(-c2c(F)cc(Cl)cc2F)c(-c2cc(F)ccc2Cl)cc(Cl)c1=O [Compound 605] | L (L shows 50% or less of control values) |
| Cn1c(-c2c(F)cc(Cl)cc2F)c(-c2cc(F)ccc2Cl)cc(Br)c1=O [Compound 606] | L (L shows 50% or less of control values) |
| O=c1ccc(-c2cc(F)cc(F)c2Cl)c(-c2c(F)cc(F)cc2F)n1CC(F)F [Compound 607] | L (L shows 50% or less of control values) |
| O=c1c(Cl)cc(-c2cc(F)cc(F)c2Cl)c(-c2c(F)cc(F)cc2F)n1CC(F)F [Compound 608] | L (L shows 50% or less of control values) |
| CCn1c(-c2c(F)cc(F)cc2F)c(-c2cccc(F)c2F)cc(C)c1=O [Compound 609] | L (L shows 50% or less of control values) |
| CCn1c(-c2c(F)cc(OC)cc2F)c(-c2cccc(F)c2F)cc(C)c1=O [Compound 610] | L (L shows 50% or less of control values) |
| CCOc1cc(F)c(-c2c(-c3cccc(F)c3F)cc(C)c(=O)n2CC)c(F)c1 [Compound 611] | L (L shows 50% or less of control values) |
| CCOc1cc(F)c(-c2c(-c3ccc(F)cc3Cl)ccc(=O)n2C)c(F)c1 [Compound 612] | H (H shows more than 50% of control values) |
| Cc1cc(-c2ccc(F)cc2Cl)c(-c2c(F)cc(F)cc2F)n(C)c1=O [Compound 613] | L (L shows 50% or less of control values) |
| CCN1C(=O)CCC(c2cc(OC)cc(F)c2Cl)=C1c1c(F)cc(F)cc1F [Compound 614] | L (L shows 50% or less of control values) |
| CCn1c(-c2c(F)cc(F)cc2F)c(-c2cc(OC)cc(F)c2Cl)ccc1=O [Compound 615] | L (L shows 50% or less of control values) |
| CCOc1cc(F)c(-c2c(-c3ccc(F)cc3Cl)cc(Cl)c(=O)n2C)c(F)c1 [Compound 616] | L (L shows 50% or less of control values) |
| CCn1c(-c2c(F)cc(F)cc2F)c(-c2cc(OC)cc(F)c2Cl)cc(Cl)c1=O [Compound 617] | L (L shows 50% or less of control values) |
| CCn1c(-c2c(F)cc(F)cc2F)c(-c2cccc(OC)c2Cl)ccc1=O [Compound 618] | L (L shows 50% or less of control values) |

| SMILES | Test F (control value class, late blight on tomato) |
| --- | --- |
| CCn1c(-c2c(F)cc(F)cc2F)c(-c2cccc(OC)c2Cl)cc(Cl)c1=O [Compound 619] | L (L shows 50% or less of control values) |
| CCn1c(-c2c(F)cc(F)cc2F)c(-c2cccc(OC)c2Cl)cc(Br)c1=O [Compound 620] | L (L shows 50% or less of control values) |
| COc1cc(F)c(-c2c(-c3ccc(F)cc3Cl)cc(C)c(=O)n2C)c(F)c1 [Compound 621] | L (L shows 50% or less of control values) |
| CCN1C(=O)CCC(c2ccc(Br)cc2Cl)=C1c1c(F)cc(F)cc1F [Compound 622] | L (L shows 50% or less of control values) |
| CCn1c(-c2c(F)cc(OC)cc2F)c(-c2cc(OC)cc(F)c2Cl)ccc1=O [Compound 623] | L (L shows 50% or less of control values) |
| CCn1c(-c2c(F)cc(F)cc2F)c(-c2ccc(Br)cc2Cl)ccc1=O [Compound 624] | H (H shows more than 50% of control values) |
| CCn1c(-c2c(F)cc(F)cc2F)c(-c2ccc(Br)cc2Cl)cc(Cl)c1=O [Compound 625] | L (L shows 50% or less of control values) |
| CCn1c(-c2c(F)cc(F)cc2F)c(-c2ccc(C)cc2Cl)ccc1=O [Compound 626] | L (L shows 50% or less of control values) |
| CCn1c(-c2c(F)cc(OC)cc2F)c(-c2cc(OC)cc(F)c2Cl)cc(Cl)c1=O [Compound 627] | L (L shows 50% or less of control values) |
| CCn1c(-c2c(F)cc(F)cc2F)c(-c2ccc(C)cc2Cl)cc(Cl)c1=O [Compound 628] | L (L shows 50% or less of control values) |
| CCn1c(-c2c(F)cccc2F)c(-c2ccc(F)cc2F)ccc1=O [Compound 629] | L (L shows 50% or less of control values) |
| CCn1c(-c2c(F)cccc2F)c(-c2ccc(F)cc2F)cc(Cl)c1=O [Compound 630] | L (L shows 50% or less of control values) |
| Cn1c(-c2c(F)cccc2F)c(-c2ccc(F)cc2F)ccc1=O [Compound 631] | L (L shows 50% or less of control values) |
| CCn1c(-c2c(F)cc(F)cc2F)c(-c2cccc(OC)c2Cl)cc(C)c1=O [Compound 632] | L (L shows 50% or less of control values) |
| CCn1c(-c2c(F)cc(OC)cc2F)c(-c2cccc(OC)c2Cl)ccc1=O [Compound 633] | H (H shows more than 50% of control values) |
| CCOc1cc(F)c(-c2c(-c3cccc(OC)c3Cl)ccc(=O)n2CC)c(F)c1 [Compound 634] | H (H shows more than 50% of control values) |
| CCn1c(-c2c(F)cc(F)cc2F)c(-c2cc(F)c(F)cc2F)ccc1=O [Compound 635] | L (L shows 50% or less of control values) |
| CCn1c(-c2c(F)cc(F)cc2F)c(-c2cc(F)c(F)cc2F)cc(Cl)c1=O [Compound 636] | L (L shows 50% or less of control values) |
| CCn1c(-c2c(F)cc(OC)cc2F)c(-c2cc(F)c(F)cc2F)cc(Cl)c1=O [Compound 637] | L (L shows 50% or less of control values) |

| SMILES | Test F (control value class, late blight on tomato) |
| --- | --- |
| CCn1c(-c2c(F)cc(OC)cc2F)c(-c2cc(F)c(F)cc2F)ccc1=O [Compound 638] | L (L shows 50% or less of control values) |
| Cn1c(-c2c(F)cc(F)cc2F)c(-c2cc(F)c(F)cc2F)ccc1=O [Compound 639] | L (L shows 50% or less of control values) |
| CCn1c(-c2c(F)cc(OC)cc2F)c(-c2cccc(OC)c2Cl)cc(Cl)c1=O [Compound 640] | L (L shows 50% or less of control values) |
| CCOc1cc(F)c(-c2c(-c3cccc(OC)c3Cl)cc(Cl)c(=O)n2CC)c(F)c1 [Compound 641] | L (L shows 50% or less of control values) |
| CCn1c(-c2c(F)cc(OC)cc2F)c(-c2cccc(OC)c2Cl)cc(Br)c1=O [Compound 642] | H (H shows more than 50% of control values) |
| CCOc1cc(F)c(-c2c(-c3cccc(OC)c3Cl)cc(Br)c(=O)n2CC)c(F)c1 [Compound 643] | L (L shows 50% or less of control values) |
| CCn1c(-c2c(F)cc(OC)cc2F)c(-c2cccc(OC)c2Cl)cc(C)c1=O [Compound 644] | L (L shows 50% or less of control values) |
| CCOc1cc(F)c(-c2c(-c3cccc(OC)c3Cl)cc(C)c(=O)n2CC)c(F)c1 [Compound 645] | L (L shows 50% or less of control values) |
| Cn1c(-c2c(F)cccc2F)c(-c2ccc(F)cc2F)cc(Cl)c1=O [Compound 646] | L (L shows 50% or less of control values) |
| O=c1ccc(-c2ccc(F)cc2F)c(-c2c(F)cccc2F)n1CC(F)F [Compound 647] | H (H shows more than 50% of control values) |
| O=c1c(Cl)cc(-c2ccc(F)cc2F)c(-c2c(F)cccc2F)n1CC(F)F [Compound 648] | L (L shows 50% or less of control values) |
| CCN1C(=O)CCC(c2ccccc2Br)=C1c1c(F)cc(F)cc1F [Compound 650] | L (L shows 50% or less of control values) |
| CCn1c(-c2c(F)cc(F)cc2F)c(-c2ccccc2Br)ccc1=O [Compound 651] | L (L shows 50% or less of control values) |
| CCn1c(-c2c(F)cc(F)cc2F)c(-c2ccccc2Br)cc(Cl)c1=O [Compound 652] | L (L shows 50% or less of control values) |
| Cn1c(-c2c(F)cc(F)cc2F)c(-c2cc(F)c(F)cc2F)cc(Cl)c1=O [Compound 653] | L (L shows 50% or less of control values) |
| COc1cc(F)c(-c2c(-c3cc(F)c(F)cc3F)ccc(=O)n2C)c(F)c1 [Compound 654] | H (H shows more than 50% of control values) |
| COc1cc(F)c(-c2c(-c3cc(F)c(F)cc3F)cc(Cl)c(=O)n2C)c(F)c1 [Compound 655] | L (L shows 50% or less of control values) |
| CCn1c(-c2c(F)cc(OC)cc2F)c(-c2cccc(F)c2Cl)cc(Br)c1=O [Compound 656] | L (L shows 50% or less of control values) |
| CCOc1cc(F)c(-c2c(-c3cccc(F)c3Cl)ccc(=O)n2CC)c(F)c1 [Compound 657] | L (L shows 50% or less of control values) |

Same assay, conditions: late blight on tomato, Phytophthora infestans; 250 ppm spray, 5-10 days after inoculation

| SMILES | Test F (control value class) |
| --- | --- |
| CCCCN1C(=O)CCC(c2cc(OC)ccc2Cl)=C1c1c(F)cccc1F [Compound 390] | L (L shows 50% or less of control values) |
